The source gives no read counts; variants with many changes may rest on few reads.
B1: LINE1-full (parent)
chain: UACGUAGGUGGUUUUCCCCUGAUAGUGCUAAGGGGGCCUGGAAGUUUGGACUGGGCAGAGCUCAACACAGCGUGGCAAAGUGGCUGUGGCUAGACUGCCUCUCUGGAUUCCUCGUCACUCAGCAGGGCAUCUCUGAGAGAAAUGCC

Variants of: B1
Assay: self-cleavage, relative activity (ratio to wild type); higher = more cleavage; in vitro, sequencing; the parent is a self-cleaving ribozyme

Variant | self-cleavage
U9C A24G A140G | 1.84
U9C A30G A42G A107G | 1.53
U9C A30G U96C | 0.57
U9C A30U A140G | 0.89
U9C A30U C120U A138G | 1.18
U9C A31C U73A U81C U130A U134A | 1.84
U9C A31G G32A C68U A77G U87C | 0.11
U9C A31G G97A | 0.42
U9C A31U A43G | 0.85
U9C A42G G97A | 0.19
U9C A42G U85C | 0.6
U9C A42G U132C | 1.15
U9C A42U A129G | 1.54
U9C A42U C98U U100G U108C C133U | 0.71
U9C A43G A79G | 2.9
U9C A43G C56U A138G | 0.18
U9C A43G C84U A117C | 0.38
U9C A43G G58A A79G A117G G125U | 0.18
U9C A43G U45C | 2.42
U9C A43G U46C A138G A141G | 2.3
U9C A43G U47C | 2.83
U9C A43G U96G | 0.31
U9C A43U U45A | 1.22
U9C A43U U46C | 0.32

Variant | self-cleavage
U9C A43U U47C A64U | 1.12
U9C A50G A121U A124U A141G | 0.96
U9C A50G A124G U130C | 1.15
U9C A50G A138U | 1.28
U9C A50U U108A | 1.23
U9C A57C C110U | 0.13
U9C A57G A138G A141G | 1.64
U9C A57U G72A U73A U109C A142G | 0.08
U9C A59G A78U U109A | 0.35
U9C A64G U102C A140G | 1.06
U9C A64U A65G A69G G97A A140G | 0.13
U9C A64U A77U U102A A140U A141G | 0.28
U9C A65G U73A U108C | 0
U9C A65U A77G | 0.5
U9C A65U A79G | 0.54
U9C A65U U102A | 0.42
U9C A67G C133U | 0.37
U9C A67G U132C | 1.34
U9C A77G A94U A124G | 0.7
U9C A77G U109C | 2.94
U9C A77U A140G | 1.88
U9C A77U A141G | 1.44
U9C A77U U109C U112C U134A | 1.12
U9C A78G A107G | 1.67

Variant | self-cleavage
U9C A79G G83A U96C | 0.18
U9C A79G U85C U104C A140U | 0
U9C A79G U132C | 1.12
U9C A94U A107G | 0.11
U9C A121G A136G | 2.24
U9C A129G U132A | 2.73
U9C A141G G144A | 1.25
U9C C16U A117G | 1.71
U9C C17U A64U U81A U91C U119C A140U | 0.25
U9C C51U G72A | 0.87
U9C C56U U102A A136G | 0.16
U9C C63U A79G U87G | 0.25
U9C C68U A94G | 0.12
U9C C90U A129U | 0.08
U9C G10U A69U | 0.23
U9C G21A G33A C133A | 1.08
U9C G21U U39A U47A A140G | 1.12
U9C G25A U91C U112C | 0
U9C G32A U73C | 1.14
U9C G32A U109C A121U C131A A136G | 1.84
U9C G33A U102C G135U | 1.21
U9C G33C A57U U112C U119C | 0.16
U9C G33C G36A A42G U112A | 0.35
U9C G33U A43G | 0.94

Variant | self-cleavage
U9C G34A U39C G44A A79G | 0.72
U9C G35A A42U A136G A141G | 0.22
U9C G40A U73A | 0.32
U9C G40A U85A A92G U104C | 0.16
U9C G55C A65G | 0.09
U9C G60A U62C U115A | 0.04
U9C G72C C128U | 0.99
U9C G105A A117G | 1.66
U9C G127U U134A | 2.26
U9C U12A A78G U85C U134A | 0.1
U9C U12A U104A | 1.22
U9C U12C A43G U52G | 0.84
U9C U12C U15C A140G | 1.38
U9C U12C U23A U46A A64G G82A U109C | 0.39
U9C U12C U45C A78U C131U | 1.71
U9C U12C U100A | 0.4
U9C U12C U104C | 1.15
U9C U12G A78U U143C | 1.4
U9C U13A A78G | 0.71
U9C U13A A129G | 1.19
U9C U13A A136G | 1.53
U9C U13A U85C | 0.34
U9C U13C A22G A107G U119A | 2.3
U9C U13C A43G U73G U115A | 0.48

Variant | self-cleavage
U9C U13C A57U U85A | 0.64
U9C U13C A67G | 0.42
U9C U13C A78G A117U | 0.77
U9C U13C C37U U47C U109C G139U | 1.31
U9C U13C G32A | 1.25
U9C U13C G33A | 1.04
U9C U13C G33A A42U C101U | 1.35
U9C U13C U14C | 0.92
U9C U13C U20A U81C U108C | 0
U9C U13C U39A A129U | 0.54
U9C U13C U81C U143A | 2.9
U9C U13C U143G | 0.66
U9C U13G U23C | 0.77
U9C U14A C38U U45A U62C U112C | 0.13
U9C U14A G40A A141U A142G | 0.35
U9C U14C A141G | 0.24
U9C U14C G70U | 0.18
U9C U14C U20C C37U | 0.57
U9C U14C U26C | 0.61
U9C U14C U85A | 0.29
U9C U15A A79G U100C A138G | 0
U9C U15A C84G | 0.41
U9C U15A G25C U62A | 0.04
U9C U15A G40A | 1.03

Variant | self-cleavage
U9C U15A U26C A140G | 0.84
U9C U15C A22U A77G A78U | 1.88
U9C U15C G34U A78U A117G | 2.53
U9C U15C G139C A142G | 1.53
U9C U15C U20A | 1.42
U9C U15C U20C U47C G80A A142G | 1.87
U9C U15G U62A U112C | 0
U9C U20A A43G | 1.04
U9C U20A A65G | 0.45
U9C U20A U26C | 1.28
U9C U20C G106A A107G | 1.61
U9C U20C U29C G54U A78G U109C U130A | 0
U9C U20C U39A U62C A65U A121C | 0.27
U9C U20C U85C U109C A140U | 0
U9C U20C U143A | 2.35
U9C U23A G75A A136G U143C | 1.19
U9C U23A U29C G75A U115A A124C | 1.65
U9C U23C U62C C118U | 0.18
U9C U23G A64U A69G C71U C120U | 0.13
U9C U26C A78G A79G | 1.53
U9C U26C C71U A77G C101U | 1.65
U9C U26C G32U U62A | 0.22
U9C U26C U91A | 0.75
U9C U26C U96C | 0.6

Variant | self-cleavage
U9C U26C U132C A136G U143C | 1.72
U9C U29A A67U A107G | 0.43
U9C U29C A43G U46C | 0.35
U9C U29C U87A A141G | 0.17
U9C U29C U143C | 1.13
U9C U39A U47A C61A G74A A124G | 0.03
U9C U39C A59G A69U U104A A141G | 0
U9C U39C A64U U130C | 0.88
U9C U39C A77C A140G | 0.28
U9C U39C A78U U87A A107G | 0.18
U9C U39C G53A | 1.58
U9C U39C G105A | 0.9
U9C U39C U52A C56A A92G C99A U115C | 0
U9C U39C U96A | 0.1
U9C U39G U115C | 1.79
U9C U45C A77U | 1.23
U9C U45C A121U | 2.22
U9C U45C A141G | 0.66
U9C U45C G54A U73A | 0.44
U9C U45C U73G G127A A138G | 2.67
U9C U45C U85C U91A A129G | 0
U9C U45C U119A A138U | 1.76
U9C U45G A50U G58A | 0.08

Source: the RNAGym collection of RNA variant scans (doi:10.7554/elife.90254)
